In the supplement of paper PMC4604168 (melanoma cell lines):
Some of the results follow. Most values come without repeats; read them as rough.

Key:
Assay in all cases: cell count relative to DMSO control; melanoma cells; higher = more viable cells
Settings in all cases: library dose: low library concentration; 72 h
[1] = tested on: COLO792
[2] = tested on: COLO800
[3] = tested on: COLO829
[4] = tested on: G361
[5] = tested on: IPC-298
[6] = tested on: IST-MEL1
[7] = tested on: LB2518-MEL
[8] = tested on: LOXIMVI
[9] = tested on: MEL-HO
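Further: cell number obtained by counting DAPI-stained nuclei in high-throughput microscope images with image analysis software, screen run in 1,536-well plates.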

Compound `O=C(O)[C@@H]1[O][Sb](=[O])([O][Sb]2(=[O])[O][C@H]([C@H](O)CO)[C@H](O)[C@H](C(=O)O)[O]2)[O][C@H]([C@H](O)CO)[C@@H]1O` (some centres not stated) [stibogluconate] + Oc1nc(-c2ccc(C(F)(F)F)cc2)nc2c1CSCC2 [XAV939] (first compound 2 µM, partner dose 2 µM) has a cell count [1] of 70.2%, a cell count [2] of 93.9% and a cell count [3] of 121%. For the same compound, the cell count [4] was 76.2%, the cell count [5] was 103% and the cell count [6] was 105%. It also gave a cell count [7] of 103%, a cell count [8] of 117% and a cell count [9] of 94.1%.

With `Cn1nnc2c(C(N)=O)ncn2c1=O` [temozolomide] + NC(=O)Nc1cc(-c2cccc(F)c2)sc1C(=O)N[C@H]1CCCNC1 [AZD7762] (first compound 2 µM, partner dose 0.02 µM) the cell count [1] was 106%, the cell count [2] was 69.7% and the cell count [3] was 90.6%. For the same compound, the cell count [4] was 111%, the cell count [5] was 95.6% and the cell count [6] was 107%. It also gave a cell count [7] of 130%, a cell count [8] of 85.3% and a cell count [9] of 102%.

For `O=C(O)c1ccc2c(c1)nc(Nc1cccc(Cl)c1)c1ccncc12` + CCCCCCCCCCCC1=C(O)C(=O)C=C(O)C1=O [Embelin] (first compound 0.4 µM, partner dose 1.2 µM), the cell count [1] was 114%, the cell count [2] was 128% and the cell count [3] was 81.6%. It also gave a cell count [4] of 96.2%, a cell count [5] of 91.7% and a cell count [6] of 103%. It also gave a cell count [7] of 101%, a cell count [8] of 64% and a cell count [9] of 88.3%.

In the case of `O=C(O)c1ccc2c(c1)nc(Nc1cccc(Cl)c1)c1ccncc12` + Oc1nc(-c2ccc(C(F)(F)F)cc2)nc2c1CSCC2 [XAV939] (first compound 0.4 µM, partner dose 2 µM), the cell count [1] is reported as 71.2%, the cell count [2] is reported as 81.3% and the cell count [3] is reported as 60.1%. The cell count [4] was 85.1%, the cell count [5] was 97.8% and the cell count [6] was 115%. For the same compound, the cell count [7] was 105%, the cell count [8] was 64.9% and the cell count [9] was 72.9%.

Compound `O=C(O)c1ccc2c(c1)nc(Nc1cccc(Cl)c1)c1ccncc12` + Cc1cc(N2CCOCC2)cc2[nH]c(-c3c(NC[C@@H](O)c4cccc(Cl)c4)cc[nH]c3=O)nc12 [BMS536924] (first compound 0.4 µM, partner dose 0.2 µM) has a cell count [1] of 87%, a cell count [2] of 61.9% and a cell count [3] of 106%. The cell count [4] was 86.5%, the cell count [5] was 93.1% and the cell count [6] was 108%. For the same compound, the cell count [7] was 83%, the cell count [8] was 54.2% and the cell count [9] was 98.4%.

With `O=C(Nc1cc(C(F)(F)F)cc(C(F)(F)F)c1)c1cc(Cl)ccc1O` + Cc1cc(N2CCOCC2)cc2[nH]c(-c3c(NC[C@@H](O)c4cccc(Cl)c4)cc[nH]c3=O)nc12 [BMS536924] (first compound 0.016 µM, partner dose 0.2 µM) the cell count [1] was 89.2%, the cell count [2] was 59.7% and the cell count [3] was 85.5%. It also gave a cell count [4] of 95.4%, a cell count [5] of 93.1% and a cell count [6] of 95.5%. The cell count [7] was 82.6%, the cell count [8] was 84.2% and the cell count [9] was 106%.

Work on `O=C(O)c1ccc2c(c1)nc(Nc1cccc(Cl)c1)c1ccncc12` + COC(=O)c1sccc1S(=O)(=O)Nc1ccc(Nc2ccccc2)cc1OC [GSK0660] (first compound 0.4 µM, partner dose 1 µM) yielded a cell count [1] of 94.1%, a cell count [2] of 80.3% and a cell count [3] of 77%. It also gave a cell count [4] of 98.9%, a cell count [5] of 93.7% and a cell count [6] of 99.3%. For the same compound, the cell count [7] was 130%, the cell count [8] was 81.3% and the cell count [9] was 89.5%.

In the case of `Cn1nnc2c(C(N)=O)ncn2c1=O` [temozolomide] + C[C@@H]1CCN(C(=O)CC#N)C[C@@H]1N(C)c1ncnc2[nH]ccc12 [CP690550] (first compound 2 µM, partner dose 1 µM), the cell count [1] is reported as 104%, the cell count [2] is reported as 77.8% and the cell count [3] is reported as 97.4%. The cell count [4] was 105%, the cell count [5] was 95.8% and the cell count [6] was 93.7%. It also gave a cell count [7] of 98.2%, a cell count [8] of 103% and a cell count [9] of 101%.

`O=C(Nc1cc(C(F)(F)F)cc(C(F)(F)F)c1)c1cc(Cl)ccc1O` + OCCn1cc(-c2cnc3nnn(Cc4ccc5ncccc5c4)c3n2)cn1 [PF04217903] (first compound 0.016 µM, partner dose 1 µM) was tested, and the cell count [1] was 94.4%, the cell count [2] was 113% and the cell count [3] was 103%. For the same compound, the cell count [4] was 102%, the cell count [5] was 107% and the cell count [6] was 98.3%. It also gave a cell count [7] of 84.5%, a cell count [8] of 130% and a cell count [9] of 94.6%.

With `O=C(Nc1cc(C(F)(F)F)cc(C(F)(F)F)c1)c1cc(Cl)ccc1O` + N#Cc1c(O)c2c(-c3ccc(-c4ccccc4O)cc3)csc2[nH]c1=O [A769662] (first compound 0.016 µM, partner dose 2 µM) the cell count [1] was 101%, the cell count [2] was 108% and the cell count [3] was 155%. The cell count [4] was 98.7%, the cell count [5] was 96.8% and the cell count [6] was 93.8%. For the same compound, the cell count [7] was 101%, the cell count [8] was 145% and the cell count [9] was 103%.

`O=C(O)c1ccc2c(c1)nc(Nc1cccc(Cl)c1)c1ccncc12` + CC(C)(C)c1cnc(CSc2cnc(NC(=O)C3CCNCC3)s2)o1 [SNS-032] (first compound 0.4 µM, partner dose 0.01 µM) gave a cell count [1] of 87.8%, a cell count [2] of 101% and a cell count [3] of 127%. It also gave a cell count [4] of 89.9%, a cell count [5] of 97% and a cell count [6] of 99.3%. For the same compound, the cell count [7] was 88.5%, the cell count [8] was 69.1% and the cell count [9] was 84.3%.

Work on `O=C(Nc1cc(C(F)(F)F)cc(C(F)(F)F)c1)c1cc(Cl)ccc1O` + O=C(O)c1ccc(-c2c[nH]c3ncc(-c4ccccc4)cc23)cc1C1CCCC1 [GSK650394] (first compound 0.016 µM, partner dose 0.16 µM) yielded a cell count [1] of 99.3%, a cell count [2] of 88.6% and a cell count [3] of 106%. The cell count [4] was 79.6%, the cell count [5] was 95.1% and the cell count [6] was 91.2%. The cell count [7] was 96.5%, the cell count [8] was 157% and the cell count [9] was 86.1%.

For `O=C(O)[C@@H]1[O][Sb](=[O])([O][Sb]2(=[O])[O][C@H]([C@H](O)CO)[C@H](O)[C@H](C(=O)O)[O]2)[O][C@H]([C@H](O)CO)[C@@H]1O` (some centres not stated) [stibogluconate] + COc1ccc(COc2ccc(Cc3cnc(N)nc3N)cc2OC)cc1 [GW2580] (first compound 2 µM, partner dose 1 µM), the cell count [1] was 93.2%, the cell count [2] was 92.6% and the cell count [3] was 128%. It also gave a cell count [4] of 96.5%, a cell count [5] of 94.4% and a cell count [6] of 99%. For the same compound, the cell count [7] was 110%, the cell count [8] was 126% and the cell count [9] was 90.8%.

`O=C(Nc1cc(C(F)(F)F)cc(C(F)(F)F)c1)c1cc(Cl)ccc1O` + COc1ccc(COc2ccc(Cc3cnc(N)nc3N)cc2OC)cc1 [GW2580] (first compound 0.016 µM, partner dose 1 µM) was tested, and the cell count [1] was 101%, the cell count [2] was 78.5% and the cell count [3] was 86.5%. For the same compound, the cell count [4] was 94.1%, the cell count [5] was 94.8% and the cell count [6] was 98.7%. It also gave a cell count [7] of 91.7%, a cell count [8] of 96.4% and a cell count [9] of 105%.

With `Cc1cc(N2CCOCC2)cc2[nH]c(-c3c(NC[C@@H](O)c4cccc(Cl)c4)cc[nH]c3=O)nc12` + O=C(O)c1ccc(-c2c[nH]c3ncc(-c4ccccc4)cc23)cc1C1CCCC1 [GSK650394] (first compound 0.2 µM, partner dose 0.16 µM) the cell count [1] was 75.8%, the cell count [2] was 37.7% and the cell count [3] was 112%. The cell count [4] was 84.9%, the cell count [5] was 86.5% and the cell count [6] was 93.9%. The cell count [7] was 95.4%, the cell count [8] was 97.8% and the cell count [9] was 93.9%.

`O=C(O)c1ccc2c(c1)nc(Nc1cccc(Cl)c1)c1ccncc12` + CC1(C)NC(=O)N(c2ccc([N+](=O)[O-])c(C(F)(F)F)c2)C1=O [nilutamide] (first compound 0.4 µM, partner dose 1 µM) showed a cell count [1] of 95.2%, a cell count [2] of 89% and a cell count [3] of 105%. It also gave a cell count [4] of 84.7%, a cell count [5] of 92.1% and a cell count [6] of 98.1%. The cell count [7] was 97.3%, the cell count [8] was 76.9% and the cell count [9] was 74.7%.

Work on `O=C(Nc1cc(C(F)(F)F)cc(C(F)(F)F)c1)c1cc(Cl)ccc1O` + CO[C@@H]1[C@H](N(C)C(=O)c2ccccc2)C[C@H]2O[C@]1(C)n1c3ccccc3c3c4c(c5c6ccccc6n2c5c31)C(=O)NC4 [Midostaurin] (first compound 0.016 µM, partner dose 0.08 µM) yielded a cell count [1] of 87.8%, a cell count [2] of 97.9% and a cell count [3] of 83.9%. It also gave a cell count [4] of 86.3%, a cell count [5] of 96.5% and a cell count [6] of 99%. It also gave a cell count [7] of 83.8%, a cell count [8] of 108% and a cell count [9] of 90.4%.

With `O=C(Nc1cc(C(F)(F)F)cc(C(F)(F)F)c1)c1cc(Cl)ccc1O` + C[C@@H]1CCN(C(=O)CC#N)C[C@@H]1N(C)c1ncnc2[nH]ccc12 [CP690550] (first compound 0.016 µM, partner dose 1 µM) the cell count [1] was 111%, the cell count [2] was 118% and the cell count [3] was 107%. For the same compound, the cell count [4] was 94.5%, the cell count [5] was 95.3% and the cell count [6] was 92.8%. For the same compound, the cell count [7] was 94.3%, the cell count [8] was 120% and the cell count [9] was 94.7%.

For `O=C(O)c1ccc2c(c1)nc(Nc1cccc(Cl)c1)c1ccncc12` + Cc1ccc(NC(=O)c2cccc(N(C)C)c2)cc1NC(=O)c1ccc(O)cc1 [ZM336372] (first compound 0.4 µM, partner dose 2 µM), the cell count [1] was 89.3%, the cell count [2] was 96.7% and the cell count [3] was 66.9%. For the same compound, the cell count [4] was 88.2%, the cell count [5] was 69.6% and the cell count [6] was 101%. The cell count [7] was 97.3%, the cell count [8] was 113% and the cell count [9] was 77%.

`O=C(Nc1cc(C(F)(F)F)cc(C(F)(F)F)c1)c1cc(Cl)ccc1O` + NC(=O)Nc1cc(-c2cccc(F)c2)sc1C(=O)N[C@H]1CCCNC1 [AZD7762] (first compound 0.016 µM, partner dose 0.02 µM) showed a cell count [1] of 85%, a cell count [2] of 100% and a cell count [3] of 117%. It also gave a cell count [4] of 123%, a cell count [5] of 99.2% and a cell count [6] of 116%. For the same compound, the cell count [7] was 111%, the cell count [8] was 145% and the cell count [9] was 115%.

Compound `Cn1nnc2c(C(N)=O)ncn2c1=O` [temozolomide] + OCCn1cc(-c2cnc3nnn(Cc4ccc5ncccc5c4)c3n2)cn1 [PF04217903] (first compound 2 µM, partner dose 1 µM) has a cell count [1] of 86.6%, a cell count [2] of 97.2% and a cell count [3] of 90.8%. It also gave a cell count [4] of 103%, a cell count [5] of 88.6% and a cell count [6] of 89.2%. For the same compound, the cell count [7] was 102%, the cell count [8] was 68.1% and the cell count [9] was 88.4%.

For `O=C(O)c1ccc2c(c1)nc(Nc1cccc(Cl)c1)c1ccncc12` + CN(NC(=O)CC(=O)NN(C)C(=S)c1ccccc1)C(=S)c1ccccc1 [STA4783] (first compound 0.4 µM, partner dose 0.006 µM), the cell count [1] was 76.2%, the cell count [2] was 47.2% and the cell count [3] was 64.1%. The cell count [4] was 89.6%, the cell count [5] was 101% and the cell count [6] was 83.6%. For the same compound, the cell count [7] was 67.7%, the cell count [8] was 82.6% and the cell count [9] was 91.5%.

`O=C(O)[C@@H]1[O][Sb](=[O])([O][Sb]2(=[O])[O][C@H]([C@H](O)CO)[C@H](O)[C@H](C(=O)O)[O]2)[O][C@H]([C@H](O)CO)[C@@H]1O` (some centres not stated) [stibogluconate] + COc1cc(Nc2ncc(F)c(Nc3ccc4c(n3)NC(=O)C(C)(C)O4)n2)cc(OC)c1OC [Tamatinib] (first compound 2 µM, partner dose 0.4 µM) was tested, and the cell count [1] was 62.4%, the cell count [2] was 55.3% and the cell count [3] was 99%. It also gave a cell count [4] of 98.9%, a cell count [5] of 84.9% and a cell count [6] of 110%. It also gave a cell count [7] of 68.3%, a cell count [8] of 66% and a cell count [9] of 97.1%.
